# Reference: PubChem BioAssay AID488969 (Vanderbilt High Throughput Screening Facility, 2010)
# Over roughly 110,000 compounds, “z-score” has its median near -0.1; the highest 2% begin near 2. The list shows a part of the results. The source made the active and inactive calls.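 The calls were made as follows: active = z-score in the third read window above 3 or below -3; inactive = the rest.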
# Target: Metabotropic glutamate receptor 8 (Rattus norvegicus) (UniProt P70579)
# Assay: rat mGluR8 modulators via GIRK flux, primary screen, cell-based, thallium flux, HTS (AID 488969)
# Conditions: HEK293 rat mGluR8, GIRK (G protein-gated inwardly rectifying potassium channel) thallium flux, FluoZin2; at 10 µM; stronger effect = higher value; submaximal glutamate (EC20) added with thallium
# Sequence of UniProt P70579 (P70579 whole entry, looked up): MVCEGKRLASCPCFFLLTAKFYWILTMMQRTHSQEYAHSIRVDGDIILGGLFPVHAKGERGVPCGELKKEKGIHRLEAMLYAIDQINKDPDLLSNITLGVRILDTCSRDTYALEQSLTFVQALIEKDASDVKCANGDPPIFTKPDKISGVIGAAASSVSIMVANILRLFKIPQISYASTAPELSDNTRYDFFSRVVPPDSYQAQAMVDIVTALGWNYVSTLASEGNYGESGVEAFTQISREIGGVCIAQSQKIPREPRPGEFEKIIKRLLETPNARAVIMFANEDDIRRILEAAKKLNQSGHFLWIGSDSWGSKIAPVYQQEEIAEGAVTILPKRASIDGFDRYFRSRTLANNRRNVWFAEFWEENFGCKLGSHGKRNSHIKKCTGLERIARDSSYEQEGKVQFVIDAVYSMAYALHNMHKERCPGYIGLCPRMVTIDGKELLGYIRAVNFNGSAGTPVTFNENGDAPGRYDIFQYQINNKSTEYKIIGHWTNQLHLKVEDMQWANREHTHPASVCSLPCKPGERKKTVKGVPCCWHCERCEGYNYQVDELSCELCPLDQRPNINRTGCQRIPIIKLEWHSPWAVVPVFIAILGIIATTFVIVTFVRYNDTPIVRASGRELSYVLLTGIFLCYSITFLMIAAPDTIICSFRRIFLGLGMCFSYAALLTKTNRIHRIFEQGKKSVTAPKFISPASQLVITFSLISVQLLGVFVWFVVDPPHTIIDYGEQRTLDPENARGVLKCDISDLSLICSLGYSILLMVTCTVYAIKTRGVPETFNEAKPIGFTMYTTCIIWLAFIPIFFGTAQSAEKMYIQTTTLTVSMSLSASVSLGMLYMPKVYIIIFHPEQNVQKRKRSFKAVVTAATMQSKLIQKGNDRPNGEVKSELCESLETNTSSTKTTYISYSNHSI
row,SMILES,z-score
1,CCc1cccc(CC)c1NC(=O)CSc1nc2ccc(N3C(=O)C4C5C=CC(C5)C4C3=O)cc2s1 (stereo not drawn),-0.0336
2,COc1ccc2cc(CN(Cc3ccco3)C(c3nnnn3C3CCCCC3)C(C)C)c(=O)[nH]c2c1 (stereo not drawn),1.45
3,Cc1cn(C2C=CC(CO)O2)c(=O)[nH]c1=O (stereo not drawn),1.46
4,CCOC(=O)c1cccc(NC(=O)Nc2cc(OC)ccc2OC)c1,-1.93
5,CCc1cccc(NC(=O)c2ccc(Br)o2)c1,-0.575
6,O=C(COc1ccccc1)NC(=S)Nc1ccc2c3c(cccc13)CC2,active: 4.29
7,Fc1ccc(Cn2nnnc2C(c2ccc(Cl)cc2)N2CCSCC2)cc1 (stereo not drawn),0.0411
8,CC1=NN(c2nc(-c3ccc(C)cc3)cs2)C(=O)C1N=Nc1cccc(C)c1 (stereo not drawn),-0.0444
9,O=C(c1cnsn1)N1CCN(c2ccccc2)CC1,0.79
10,CCC(=O)Nc1ccc(C(=O)CSc2nc3ccccc3cc2CC)cc1,-0.0164
11,c1ccc(-c2nc(NCc3ccco3)c3oc4ccccc4c3n2)cc1,-0.0363
12,CC(=O)Nc1cccc(-c2csc(Nc3ccc(C)cn3)n2)c1,-0.051
13,O=C(Nc1ccc2nc(-c3ccco3)c(-c3ccco3)nc2c1)NC1CC1,-0.968
14,CCOC(=O)c1sc2nc3c(cc2c1N)COC(C)(CC)C3 (stereo not drawn),0.482
15,COc1cccc(-c2nc(-c3ccccn3)no2)c1OC,0.5
16,Cc1ccc(Cn2c(-c3nonc3N)nc3ccccc32)cc1,-2.33
17,COC(=O)C(O)(CC(=O)Nc1cc(Cl)ccc1Cl)C(F)(F)F (stereo not drawn),-0.0611
18,Cc1ccc(N(CC(O)Cn2c3ccccc3c3ccccc32)S(C)(=O)=O)cc1 (stereo not drawn),0.628
19,COc1ccc(N(CC(=O)Nc2ccc(S(=O)(=O)N3CCOCC3)cc2)S(=O)(=O)c2ccccc2)cc1,-0.371
20,Cn1c(=O)oc2cc(S(=O)(=O)N3CCCC(C(=O)NCc4ccc5c(c4)OCO5)C3)ccc21 (stereo not drawn),0.0687
21,CCN(CC)c1ccc(C2C3CCCCC3(O)CCN2CC(=O)Nc2ccccc2)cc1 (stereo not drawn),0.131
22,O=C(c1cccs1)N1CCN(S(=O)(=O)Cc2ccccc2)CC1,0.263

row,SMILES,z-score
1,COc1ccccc1-c1nc(C#N)c(N2CCc3ccccc3C2)o1,-1.32
2,N#C/C(=N\Nc1cccc(Cl)c1)C(=O)c1ccccc1,-0.892
3,COc1ccc(OC)c(/C=C/C(=O)OCC(=O)Nc2cccc(Oc3ccccc3)c2)c1,0.125
4,Cc1onc(-c2c(F)cccc2Cl)c1C(=O)Nc1sc2c(c1C(N)=O)CCC2,-0.0663
5,O=C(Nc1cccc(S(=O)(=O)C(F)F)c1)c1ccc(S(=O)(=O)N2CCOCC2)cc1,-0.42
6,CCOC(=O)c1sc(NC(=O)CCN2CC(C)OC(C)C2)c(C(=O)OCC)c1C (stereo not drawn),-0.533
7,CC(=O)Nc1ccc(S(=O)(=O)NCC2CCC(C(=O)N3CCN(c4ccccn4)CC3)CC2)cc1 (stereo not drawn),-1.85
8,COc1ccc(OCC(=O)N/N=C/c2ccc(OC)c(OC)c2C(=O)O)cc1,0.0225
9,O=C(c1ccc([N+](=O)[O-])cc1)N(Cc1ccc(Cl)cc1Cl)N1C(=O)CCCC1=O,-0.157
10,CCCCOC(=O)Nc1nnc(CCOCC)s1,0.454
11,COc1ccccc1/C=C/C(=O)NCC(=O)N/N=C/c1cccnc1,0.376
12,CCC(C)c1ccc(OCC(=O)Nc2ccc(Cl)cn2)cc1 (stereo not drawn),-0.607
13,On1c(-c2ccccc2)nc2ccc(Cl)cc21,-0.175
14,O=C(CCCCCn1c(=O)[nH]c2ccsc2c1=O)N1CCCCC1,0.0114
15,CCOc1ccc(-c2csc(/C(C#N)=C\c3ccc(O)c([N+](=O)[O-])c3)n2)cc1,-0.0468
16,COc1ccc(NC(=S)NC(NC(=O)c2cccc3ccccc23)C(Cl)(Cl)Cl)c([N+](=O)[O-])c1 (stereo not drawn),0.288
17,CCNc1nc(NCC)n2c(SCC(=O)N3CC4(C)CC3CC(C)(C)C4)nnc2n1 (stereo not drawn),-0.372
18,O=S(=O)(Nc1nc2ccc(S(=O)(=O)N3CCCC3)cc2s1)c1ccc(F)cc1,-0.0332
19,Cc1cc(S(=O)(=O)Nc2ccccc2C(=O)O)ccc1Cl,-0.498
20,O=C(CN1CCN(Cc2ccc3c(c2)OCO3)CC1)c1c[nH]c2ccccc12,-0.0425
21,COc1ccc(-n2nc(C(=O)NCC(=O)N3CCN(c4ccccn4)CC3)c3ccccc3c2=O)cc1,0.213
22,CC(C)N=C(NC#N)SCc1ccccc1,-0.319

row,SMILES,z-score
1,CC(/C=N\N1CCN(c2ccc(Cl)cc2)CC1)=C\c1ccccc1,-0.0676
2,Nn1c(SCC(=O)NC2CCCC2)nnc1-c1ccccc1F,0.166
3,COc1ccc(OC)c(CNn2c(-c3cccc(C)c3)nc3ccccc3c2=O)c1,-0.693
4,CN=C(Nc1cc(C)nn1CCC#N)c1ccccc1F,1.23
5,CCC1(O)c2ccccc2-c2ncccc21 (stereo not drawn),0.118
6,CC(C)Cn1c(CN(Cc2ccccc2)Cc2ccccc2)nc2c1c(=O)n(C)c(=O)n2C,0.297
7,CC(Sc1ccccc1)C(=O)Nc1cccc(N(C)S(C)(=O)=O)c1 (stereo not drawn),0.0381
8,O=C(O)C1CC(c2ccccc2)=NO1 (stereo not drawn),-0.378
9,Cc1ccccc1NC1=C/C(=N\S(=O)(=O)c2cccs2)c2ccccc2C1=O,-0.0328
10,Cc1cc(=O)[nH]c(SCCCOc2ccc(F)cc2)n1,-0.256
11,CCOP(=O)(c1ccc(N(C)C)cc1)C(O)c1ccc(Cl)cc1 (stereo not drawn),1.3
12,COCCN(C(=O)Cn1nnc2ccccc21)C(C(=O)NC1CCCC1)c1ccc(OC)cc1OC (stereo not drawn),-0.567
13,O=C(c1ccc2c(c1)OCO2)N(c1ccccc1)C1C=CS(=O)(=O)C1 (stereo not drawn),0.361
14,COc1cccc(/C=C/C(=O)NCCc2ccc(OC)c(OC)c2)c1,-0.351
15,Cc1cc(NC(=O)CSc2nnnn2C)n(-c2ccccc2)n1,-0.0738
16,Cc1ccc(C(=O)NC(=S)N2CCN(C)CC2)cc1,0.0855
17,CCOC(=O)CC1C(=O)NCCN1C(=O)c1cccc(C(F)(F)F)c1 (stereo not drawn),-0.191
18,Cc1cc(C)c2oc(=O)cc(CN3CCOCC3)c2c1,-0.0321
19,CCC(c1nnc(SCC(=O)Nc2ccc(Cl)cc2C(F)(F)F)n1C1CCCCC1)N(C)C (stereo not drawn),-0.456
20,COc1cccc(CNC(=O)c2cc3ccccn3n2)c1,-0.0699
21,CC(C)C1Nc2ccc(S(N)(=O)=O)cc2C2C=CCC21 (stereo not drawn),-0.325
22,CC(C)CNS(=O)(=O)c1ccc(CCC(=O)Nc2ccc3c(c2)OCO3)cc1,-0.0635

row,SMILES,z-score
1,Cc1cc(C)cc(NC(=O)CSc2nnc(CN3CCOCC3)n2C)c1,0.0844
2,COc1ccc(C(=O)N2CCN=C2SCc2cccnc2)cc1OC,0.402
3,CS(=O)(=O)Nc1ccc(C(=O)Nc2ccccc2Sc2ccccc2)cc1,0.277
4,CCCSC(=O)N(CC)CC(=O)Nc1c(CC)cccc1CC,-1.38
5,Cc1cc2c(nn1)CCC/C2=N\O,0.743
6,CCN1CCCC1CNC(=O)c1cc(OC)c(OC)c(OC)c1 (stereo not drawn),-0.202
7,COc1ccc(CCNc2cc(-c3ccccc3)nc3ncnn23)cc1,-0.536
8,CSc1ccccc1NC(=O)CO/N=C(\C)c1cc2ccccc2o1,-0.724
9,CCc1ccccc1NC(=O)Cn1nnc(-c2cccnc2)n1,-0.0205
10,CCCCN=C1NN=C(c2cc3ccccc3o2)CS1,-0.261
11,CCN(CC)C(=O)C1CCCc2c1[nH]c1ccc(Cl)cc21 (stereo not drawn),-0.403
12,CC1=NN(C(=O)c2ccc(Cn3nc(C)c(Br)c3C)cc2)C(O)(C(F)(F)F)C1 (stereo not drawn),-0.331
13,CCOC(=O)N/N=C/c1cn(CCCOc2ccccc2)c2ccccc12,-0.0587
14,CC1=NN(C(=O)c2ccc(C)cc2)C(O)(C(F)(F)OC(F)(F)F)C1 (stereo not drawn),-0.0203
15,c1ccc(CSC2=NCCCN2)cc1,0.34
16,CCOC(=O)CSc1ncnc2c1c(-c1ccccc1)cn2-c1ccc(OC)cc1,-0.583
17,COc1ccccc1NC(=O)c1c(C)oc2c1CCCC2,-0.554
18,CN(C(=O)CCc1nc2ccccc2s1)c1ccccc1,-0.0525
19,CN1CCC(OC(=O)c2ccc(Br)cc2)CC1,-0.113
20,O=C(CN(CCc1ccccc1)S(=O)(=O)c1ccc(Br)cc1)N/N=C/c1ccc2c(c1)OCO2,-0.139
21,O=C(NNC(=S)Nc1ccc(Br)cc1)c1ccc(N2CCOCC2)c([N+](=O)[O-])c1,-1.93
22,Cc1onc(-c2c(Cl)cccc2Cl)c1C(=O)NC(C)(C)CO,-0.202

row,SMILES,z-score
1,COc1ccc(C(=O)NCc2ccc(C)cc2)cc1S(=O)(=O)N1CCCc2ccccc21,-0.351
2,CCSc1nnc(N2C(=O)CC(c3ccsc3)C3=C2CC(C)(C)CC3=O)s1 (stereo not drawn),-0.747
3,CNC(=S)N1CCN(c2cccc(OC)c2)CC1,0.273
4,Nc1nnc(-c2ccncc2)s1,-0.445
5,CCc1cc2c(Sc3nc4ccccc4s3)ncnc2s1,0.273
6,O=C(COc1ccc(S(=O)(=O)NC2CCCCC2)cc1Cl)N1CCN(c2ccccc2)CC1,1.16
7,CCc1ccc(N2C(=O)C3ON(c4ccccc4)C(c4ccco4)C3C2=O)cc1 (stereo not drawn),0.783
8,FC(F)(F)c1cnc(-n2cc[nH]c2=S)c(Cl)c1,-0.000676
9,CCOP(=O)(OCC)C(Nc1ccccc1)c1cc(OC)ccc1OC (stereo not drawn),-0.141
10,COc1ccccc1C1C(C#N)=C(N)Oc2c1c(-c1ccccc1)nn2-c1ccccc1 (stereo not drawn),-0.457
11,Cc1ccc(C2=N/C(=C\c3c(C)nn(-c4ccccc4)c3N3CCCC3)C(=O)O2)cc1,-0.297
12,CN1CCN(c2nc3c(c(=O)[nH]c(=O)n3C)n2CCSc2nc3ccccc3s2)CC1,-0.222
13,Cc1ccc(Cc2nnc3n(-c4cccc(C)c4)nc(C(=O)c4ccccc4)n3c2=O)cc1,-0.00526
14,Cc1cc(C)c(-c2csc(NC(=O)c3n[nH]c(=O)c4ccccc34)n2)c(C)c1,0.145
15,CC(C)(C)C(=O)Nc1ccc2c(c1)-c1cc(NC(=O)C(C)(C)C)ccc1C2,-0.213
16,CC1CCC(NC(=O)C2c3ccccc3C(=O)N2Cc2cccs2)CC1 (stereo not drawn),-0.154
17,COc1cccc(NS(=O)(=O)c2ccc3[nH]cc(C(=O)NCCC(C)C)c(=O)c3c2)c1,0.0351
18,CC1(C)CC(=O)C(C(=O)/C=C/NCCc2ccccc2)C(=O)C1,-0.72
19,CCCCC(=O)N1CCCC(c2nc3c(nnn3Cc3cc(C)ccc3C)c(=O)[nH]2)C1 (stereo not drawn),active: -3.3
20,CCNC(=O)CSc1nnc(-c2cccc(S(=O)(=O)N(CC)CC)c2)n1CCc1ccccc1,-0.141
